# Measured values published in the BET-seq Pho4 binding data (Le et al. 2018).
# This is one part of the list. The energies were worked out here from pooled read counts, against the library average; single values are noisy.
# Target: T1, Pho4 (S. cerevisiae) (UniProt P07270)
# T1 sequence: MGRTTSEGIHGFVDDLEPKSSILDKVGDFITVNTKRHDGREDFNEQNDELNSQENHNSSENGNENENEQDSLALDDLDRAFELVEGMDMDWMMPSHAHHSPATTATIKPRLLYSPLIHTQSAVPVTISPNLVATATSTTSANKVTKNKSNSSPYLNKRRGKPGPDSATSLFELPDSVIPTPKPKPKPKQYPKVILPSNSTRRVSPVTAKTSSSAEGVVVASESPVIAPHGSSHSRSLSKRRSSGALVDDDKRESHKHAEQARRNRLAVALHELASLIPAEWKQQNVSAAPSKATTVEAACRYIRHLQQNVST
# Test: relative binding free energy (BET-seq); higher = weaker binding
# Conditions: reference: library average
row,Sequence,relative binding free energy
1,GTGGACACGTGGATAG,0.07 kcal/mol
2,ACGGGCACGTGGCGAT,0.01 kcal/mol
3,TTCATCACGTGTATGG,0.1 kcal/mol
4,AAAGTCACGTGATGGT,0.18 kcal/mol
5,GTCCGCACGTGTGTGT,-0.07 kcal/mol
6,TTTGTCACGTGGCCTT,-0.09 kcal/mol
7,AAGGGCACGTGGTGAA,-0.2 kcal/mol
8,TTGTACACGTGATCGG,0.19 kcal/mol
9,TGTGACACGTGATTTC,0.18 kcal/mol
10,TTGGGCACGTGGTATA,-0.13 kcal/mol
11,CGGTGCACGTGAGGTT,0.22 kcal/mol
12,AAGGGCACGTGGGGCA,-0.3 kcal/mol
13,GAGGTCACGTGGTAAG,0.12 kcal/mol
14,TGGGACACGTGTAGAA,0.07 kcal/mol
15,CGTATCACGTGTTTTT,0.26 kcal/mol
16,TTGGGCACGTGGGTGC,-0.15 kcal/mol
17,AGGCACACGTGGAGGT,-0.15 kcal/mol
18,TGTGGCACGTGTATTA,-0.11 kcal/mol
19,ATTTTCACGTGCTGTA,0.17 kcal/mol
20,GGGTGCACGTGTGAGC,0.17 kcal/mol
21,GTTTTCACGTGGTTCA,0.16 kcal/mol
22,GGGCCCACGTGTGGAT,0.09 kcal/mol
23,TGTAGCACGTGTTAGG,-0.08 kcal/mol
24,ATGTGCACGTGTATAT,-0.17 kcal/mol
25,AAGGGCACGTGATTGG,0.07 kcal/mol

row,Sequence,relative binding free energy
1,GAGATCACGTGCAGGG,0.14 kcal/mol
2,TGTTACACGTGAATGA,0.42 kcal/mol
3,GCCTGCACGTGTGTGG,0 kcal/mol
4,CAGGGCACGTGCAGGT,-0.21 kcal/mol
5,AGATTCACGTGAAGTT,0.19 kcal/mol
6,GGGGCCACGTGGTGAG,-0.14 kcal/mol
7,GCGGTCACGTGCTAGT,0.19 kcal/mol
8,AGGTACACGTGGTACT,-0.06 kcal/mol
9,GTAATCACGTGTGAAG,0.3 kcal/mol
10,TAGTTCACGTGAGTGG,0.38 kcal/mol
11,TGTTTCACGTGTAGTT,0.38 kcal/mol
12,CGGTGCACGTGATTGG,0.16 kcal/mol
13,TGGAGCACGTGAGTAG,0.01 kcal/mol
14,GTCTTCACGTGCTTGA,0.39 kcal/mol
15,ACGGGCACGTGAGTTG,0.14 kcal/mol
16,TTAAGCACGTGGGACT,-0.16 kcal/mol
17,GGGTTCACGTGGAGTC,0.41 kcal/mol
18,CTTAGCACGTGAAAGG,0.31 kcal/mol
19,TAGTACACGTGGTTCA,0.12 kcal/mol
20,ATATGCACGTGGAAGT,0 kcal/mol
21,GAGGACACGTGGATTT,0.21 kcal/mol
22,GGCCTCACGTGTGGCG,0.19 kcal/mol
23,AGTAACACGTGATTGA,0.11 kcal/mol
24,AGGGTCACGTGCGCGT,-0.13 kcal/mol
25,TGGATCACGTGGTATA,0.1 kcal/mol

row,Sequence,relative binding free energy
1,GTGCGCACGTGTGTGT,-0.08 kcal/mol
2,GGGTTCACGTGGAGAT,0.29 kcal/mol
3,CTTGACACGTGGAGAG,0.2 kcal/mol
4,GTACGCACGTGGAGGG,-0.17 kcal/mol
5,AGTGTCACGTGGAGAG,0.08 kcal/mol
6,ATTGGCACGTGTGCTG,-0.07 kcal/mol
7,GTGTTCACGTGGTGTG,0.23 kcal/mol
8,CACGTCACGTGGTTGT,0.02 kcal/mol
9,GGAGACACGTGGCGAG,0 kcal/mol
10,TTATACACGTGGTGAA,0.03 kcal/mol
11,GTTGGCACGTGTGCCG,-0.06 kcal/mol
12,CAATGCACGTGTATTT,0.14 kcal/mol
13,GGCGGCACGTGGGCAG,-0.11 kcal/mol
14,TCGGACACGTGGGATA,0.05 kcal/mol
15,TGGATCACGTGCATTT,0.36 kcal/mol
16,CATTTCACGTGTATGG,0.3 kcal/mol
17,AGGAGCACGTGGAGTT,-0.09 kcal/mol
18,TGTTCCACGTGGGTAA,-0.06 kcal/mol
19,CGGCGCACGTGATTGG,0.08 kcal/mol
20,TGTATCACGTGCGGTG,0.04 kcal/mol
21,GGGTGCACGTGTGACG,0.12 kcal/mol
22,AGGAGCACGTGTGAGA,-0.01 kcal/mol
23,GGAGGCACGTGGCGGC,-0.26 kcal/mol
24,TTTGTCACGTGTGGCA,0.18 kcal/mol
25,GGGCGCACGTGGGAGG,-0.18 kcal/mol

row,Sequence,relative binding free energy
1,TTGGCCACGTGTAGAG,-0.11 kcal/mol
2,TTCAGCACGTGTGGGC,0 kcal/mol
3,GGGCACACGTGGGTTA,-0.15 kcal/mol
4,GGTTACACGTGACGGA,0.27 kcal/mol
5,GAATACACGTGCGGGT,0.14 kcal/mol
6,TGGCACACGTGTGGTC,0.01 kcal/mol
7,GGTCTCACGTGGAAGA,0.32 kcal/mol
8,CATTGCACGTGGGGAA,-0.05 kcal/mol
9,TGTTACACGTGATGTT,0.28 kcal/mol
10,GTGTACACGTGGTAAG,0.08 kcal/mol
11,TGATTCACGTGTGCAG,0.13 kcal/mol
12,TGGCGCACGTGGGTTT,-0.24 kcal/mol
13,GGAGCCACGTGTTGGT,0.01 kcal/mol
14,GGATTCACGTGGGCAG,0.11 kcal/mol
15,GGAATCACGTGAGGTA,0.35 kcal/mol
16,TGATGCACGTGAAGAA,0.39 kcal/mol
17,TGAATCACGTGGGTGT,-0.01 kcal/mol
18,TGTTTCACGTGTATGC,0.31 kcal/mol
19,GGACACACGTGAGGTG,0.29 kcal/mol
20,TGAATCACGTGGGAGG,0.03 kcal/mol
21,GGAGGCACGTGAGAAG,0.14 kcal/mol
22,AGGAGCACGTGGACTG,-0.06 kcal/mol
23,ATAGTCACGTGTTATG,0.13 kcal/mol
24,TGGTTCACGTGATTCA,0.29 kcal/mol
25,TTATGCACGTGAGCAG,0.23 kcal/mol

row,Sequence,relative binding free energy
1,TGGTTCACGTGACTTT,0.4 kcal/mol
2,TGTGCCACGTGTGAAT,0.08 kcal/mol
3,AATTGCACGTGGTTAA,-0.02 kcal/mol
4,CAGGGCACGTGATTTT,0.01 kcal/mol
5,CTACGCACGTGGTGTG,-0.22 kcal/mol
6,CTGGGCACGTGTCGTA,-0.08 kcal/mol
7,CCGGGCACGTGGGGTT,-0.33 kcal/mol
8,GAGGGCACGTGCGCTG,-0.18 kcal/mol
9,GGTTGCACGTGAACAG,0.3 kcal/mol
10,TTTAGCACGTGCAATG,0.03 kcal/mol
11,ATCGTCACGTGCTGTG,-0.05 kcal/mol
12,GGTTGCACGTGGGTAT,-0.03 kcal/mol
13,TTAATCACGTGTAGGA,0.03 kcal/mol
14,CTTGGCACGTGTTTTC,-0.05 kcal/mol
15,CTTTTCACGTGCTTTT,0.21 kcal/mol
16,GATGTCACGTGTCGTG,0.14 kcal/mol
17,AAGGGCACGTGGGAGT,-0.21 kcal/mol
18,TTTAGCACGTGATGAT,0.2 kcal/mol
19,CTGTACACGTGGGTAT,-0.14 kcal/mol
20,GGTGGCACGTGAGGTG,0.2 kcal/mol
21,GCCGTCACGTGTAGGG,0.17 kcal/mol
22,GAAATCACGTGGGTTA,0.01 kcal/mol
23,TGCATCACGTGTTGAT,0.17 kcal/mol
24,CTTATCACGTGCGGGG,0.01 kcal/mol
25,AGGGGCACGTGTCGCG,-0.12 kcal/mol

row,Sequence,relative binding free energy
1,GTAGTCACGTGTAGAA,0.14 kcal/mol
2,CTGCGCACGTGTGGTA,-0.09 kcal/mol
3,TTGCTCACGTGAAGCG,0.53 kcal/mol
4,GTTGTCACGTGGCGGG,0.1 kcal/mol
5,AAGAACACGTGAGGGA,0.38 kcal/mol
6,TTATTCACGTGTGCTC,0.21 kcal/mol
7,GCAGTCACGTGAGGGG,0.31 kcal/mol
8,GTGTGCACGTGGCCTG,-0.12 kcal/mol
9,GGTTTCACGTGACGAG,0.39 kcal/mol
10,CTGACCACGTGGGGGG,-0.29 kcal/mol
11,AGCGGCACGTGCAGGT,-0.26 kcal/mol
12,AATTACACGTGAGTTA,0.29 kcal/mol
13,CCAGGCACGTGGGGAG,-0.3 kcal/mol
14,CGGTGCACGTGGTGCT,-0.17 kcal/mol
15,ATTATCACGTGGTAGG,0.03 kcal/mol
16,CTTGGCACGTGATCGT,0.02 kcal/mol
17,ATTTACACGTGGTGGA,0.08 kcal/mol
18,AATATCACGTGGAGAG,0.25 kcal/mol
19,TTTCGCACGTGGTAAG,-0.08 kcal/mol
20,GTTGTCACGTGAGCAG,0.18 kcal/mol
21,AGTATCACGTGTTGTC,0.11 kcal/mol
